Data: PubChem BioAssay AID1508642 (National Center for Advancing Translational Sciences (NCATS), 2021)
Among all 43,000 compounds or so, about 200 (0.47%) were called active. Roughly 12% stayed inconclusive and do not appear here. Calls come from the whole dose curve; as a rule, active = well fitted cell-killing curve with a large enough effect; inconclusive = small, poorly fitted or top-dose-only effect, or effect the other way; inactive = flat fitted curve, though single readings scatter. The list shows a part of the results.

assay: Cell viability qHTS assay in S16 Pmp22-F2sN cells; details: S16 Pmp22-F2sN Schwann cells viability, CellTiter-Glo, 24 h; series mostly up to 57.5 µM; activity change, negative = cytotoxicity: at the top concentration; note: nearly all actives have a fitted effect of over 65% in size
In short: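 S16 Pmp22-F2sN Schwann cells (500-1,000/well) in phenol-red-free DMEM with 10% FBS received 23 nL compound by pin tool for 24 h at 37 °C. Viability was then read as CellTiter-Glo luminescence after 15 min at room temperature.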
% is set by controls: 0 for no effect and ±100 for the full control effect.

Question: For `O=C(CSCn1nnc2c(=O)[nH]c(Cc3ccc(F)cc3)nc21)Nc1cccc(C(F)(F)F)c1`, which “activity change, negative = cytotoxicity” value is on record?
Answer: inactive: 1.61%

Question: For `CC(=O)Nc1ccc(NC(=O)CCCn2nc(C)c3sc4ccccc4c3c2=O)cc1`, which “activity change, negative = cytotoxicity” value is on record?
Answer: inactive: 9.83%

Question: Which “activity change, negative = cytotoxicity” value does the source give for `CCOc1ccc(N(C)S(=O)(=O)c2ccc3c(c2)CCCN3C(C)=O)cc1` here?
Answer: inactive: -7.93%

Question: For `CC1CCN(C(=O)c2cc(-c3ccc(Br)cc3)on2)CC1`, which “activity change, negative = cytotoxicity” value is on record?
Answer: inactive: -0.306%

Question: With `CCOc1ccc(CNS(=O)(=O)c2ccc3c(c2)CCCN3C(C)=O)cc1OC` as the compound, how does the “activity change, negative = cytotoxicity” value read?
Answer: inactive: -8.35%

Question: With `CCOC(=O)C1CCCN(C(=O)c2nn(-c3ccc(C)cc3)c(=O)n(C)c2=O)C1` (stereo not drawn) as the compound, how does the “activity change, negative = cytotoxicity” value read?
Answer: inactive: -8.86%

Question: With `CCc1nnc2c(N3CCN(c4cc(Cl)ccc4C)CC3)nc3ccccc3n12` as the compound, how does the “activity change, negative = cytotoxicity” value read?
Answer: inactive: -0.6%

Question: For `CCCN(C(=O)c1cc2c(=O)[nH]c3ccc(C)cc3c2s1)c1ccc(CC)cc1`, which “activity change, negative = cytotoxicity” value is on record?
Answer: inactive: 23.5%

Question: For `COc1ccc(-c2noc(COc3cc(C)ccc3C)n2)cc1OC`, which “activity change, negative = cytotoxicity” value is on record?
Answer: inactive: -1.7%

Question: For `O=C(COc1ccc(F)cc1)Nc1ccc2nc(SCC(=O)N3CCOCC3)sc2c1`, which “activity change, negative = cytotoxicity” value is on record?
Answer: inactive: -3.08%

Question: With `CC(C)c1ccc(N2C(=O)CSC23C(=O)N(C)c2ccccc23)cc1` (stereo not drawn) as the compound, how does the “activity change, negative = cytotoxicity” value read?
Answer: inactive: 27.8%

Question: For `O=C1[C@@H]2CSC(c3ccc(Cl)cc3)N2C(=O)N1c1ccccc1` (stereo partly drawn), which “activity change, negative = cytotoxicity” value is on record?
Answer: inactive: 4.29%

Question: With `COc1ccc(C2=NC(c3ccncc3)=Nc3ccc(OC)cc3N2)cc1` as the compound, how does the “activity change, negative = cytotoxicity” value read?
Answer: inactive: -24.7%

Question: Which “activity change, negative = cytotoxicity” value does the source give for `COc1ccc(-c2noc(N3CCC(C(=O)N4CCN(c5cccc(C)c5C)CC4)CC3)n2)cc1` here?
Answer: inactive: 8.52%

Question: With `COc1ccc(C2=C(C)C(=O)N(Cc3ccc(C(=O)NCc4cccc(C)c4)cc3)S2(=O)=O)cc1` as the compound, how does the “activity change, negative = cytotoxicity” value read?
Answer: inactive: -9.01%

Question: For `COc1ccc2c(c1)c(N1CCCC1=O)c(C(=O)Nc1ccccc1C(F)(F)F)n2C`, which “activity change, negative = cytotoxicity” value is on record?
Answer: inactive: 8.68%

Question: For `CCOc1ccc(NC(=O)CCNS(=O)(=O)c2cccc3nonc23)cc1`, which “activity change, negative = cytotoxicity” value is on record?
Answer: inactive: 8.1%

Question: With `CCc1ccc(NC(=O)Cn2c(=O)n(Cc3ccco3)c(=O)c3oc4ccccc4c32)cc1` as the compound, how does the “activity change, negative = cytotoxicity” value read?
Answer: inactive: 2.72%

Question: Which “activity change, negative = cytotoxicity” value does the source give for `CC(C)c1ccc(NC(=O)CN2C(=O)COc3ccc(S(=O)(=O)N4CCCCCC4)cc32)cc1` here?
Answer: inactive: 2.3%

Question: Which “activity change, negative = cytotoxicity” value does the source give for `O=C(NCc1cccs1)c1ccc(CSc2nc3cccnc3n2Cc2ccccc2F)cc1` here?
Answer: inactive: 1.29%

Question: Which “activity change, negative = cytotoxicity” value does the source give for `CCOC(=O)c1c(NC(=O)c2cc(-c3cccc(OC)c3)on2)sc2c1CCCC2` here?
Answer: inactive: -3.75%

Question: With `COc1cccc(CNC(=O)Cc2c(C(=O)O)c(C)cn2C)c1` as the compound, how does the “activity change, negative = cytotoxicity” value read?
Answer: inactive: 3.87%

Question: For `COc1ccc(CC(=O)NCC(c2cccs2)S(=O)(=O)c2ccc(C)cc2)cc1` (stereo not drawn), which “activity change, negative = cytotoxicity” value is on record?
Answer: inactive: 9.53%

Question: With `COc1ccc(S(=O)(=O)Nc2c(C)nc3nc(C)[nH]n3c2=O)cc1` as the compound, how does the “activity change, negative = cytotoxicity” value read?
Answer: inactive: -3.96%

Question: Which “activity change, negative = cytotoxicity” value does the source give for `CCN(CC)C(=O)c1ccc(Nc2nnc(-c3ccc(C)c(S(=O)(=O)NC)c3)c3ccccc23)cc1` here?
Answer: inactive: -16%

Question: Which “activity change, negative = cytotoxicity” value does the source give for `CCc1cccc(N2C(=O)CSC23C(=O)Nc2ccccc23)c1` (stereo not drawn) here?
Answer: inactive: -6.18%

Question: Which “activity change, negative = cytotoxicity” value does the source give for `Cc1oc(-c2ccccc2Cl)nc1CSc1nc2ncccc2[nH]1` here?
Answer: inactive: 13.8%

Question: Which “activity change, negative = cytotoxicity” value does the source give for `Cc1cc(C)c(NC(=O)Cn2cnc3c(oc4ccccc43)c2=O)c(C)c1` here?
Answer: inactive: 3.4%

Question: With `COc1ccccc1N1CCN(c2ncnc3onc(-c4cccc(Cl)c4)c23)CC1` as the compound, how does the “activity change, negative = cytotoxicity” value read?
Answer: inactive: 9.16%

Question: With `O=C(NCc1cccc(Cl)c1)c1ccc2nc(N3CCCCC3)sc2c1` as the compound, how does the “activity change, negative = cytotoxicity” value read?
Answer: inactive: -2.34%

Question: Which “activity change, negative = cytotoxicity” value does the source give for `CCOC(=O)c1c(C)n(-c2ccccc2)c2ccc(OC(=O)c3cccc(OC)c3OC)cc12` here?
Answer: inactive: 14.8%

Question: With `CCOC(=O)c1c(-c2ccc(C)cc2)csc1NC(=O)c1cc(=O)c2ccc(C)cc2o1` as the compound, how does the “activity change, negative = cytotoxicity” value read?
Answer: inactive: -11.5%

Question: Which “activity change, negative = cytotoxicity” value does the source give for `CSc1cccc(Nc2cc(C(=O)NCCCN(C)c3ccccc3)c3ccccc3n2)c1` here?
Answer: inactive: 4.89%

Question: With `COc1ccc(/C=C/C(=O)Nc2nc3n(n2)C(c2ccc(F)cc2)C=C(c2ccccc2)N3)cc1` (stereo not drawn) as the compound, how does the “activity change, negative = cytotoxicity” value read?
Answer: inactive: -8.87%

Question: For `COc1ccc(NC(=O)C2CCCN(S(=O)(=O)c3ccc(Br)s3)C2)cc1` (stereo not drawn), which “activity change, negative = cytotoxicity” value is on record?
Answer: inactive: -18.8%

Question: Which “activity change, negative = cytotoxicity” value does the source give for `CC(=O)N1CCc2cc(S(=O)(=O)NC(C(=O)Nc3ccc(C)cc3C)C(C)C)ccc21` (stereo not drawn) here?
Answer: inactive: -1.66%

Question: For `COc1cccc(C(=O)Nc2c(C(=O)N3CCN(c4ccc(F)cc4)CC3)oc3ccccc23)c1`, which “activity change, negative = cytotoxicity” value is on record?
Answer: inactive: 0.393%

Question: For `CCc1ccc(CNC(=O)c2c(C)oc3ncnc(N4CCOCC4)c23)cc1`, which “activity change, negative = cytotoxicity” value is on record?
Answer: inactive: -11.8%

Question: Which “activity change, negative = cytotoxicity” value does the source give for `COc1cc2ccccc2cc1C(=O)Nc1ccc2oc(-c3ccc(F)cc3Cl)nc2c1` here?
Answer: inactive: 1.91%

Question: Which “activity change, negative = cytotoxicity” value does the source give for `CCOc1ccc(C(=O)c2oc3ccccc3c2NC(=O)Cc2coc3ccc(CC)cc23)cc1` here?
Answer: inactive: -8.31%

Question: With `O=C(Cc1ccc(F)cc1)Nc1nnc2n1CCS2` as the compound, how does the “activity change, negative = cytotoxicity” value read?
Answer: inactive: -1.42%

Question: Which “activity change, negative = cytotoxicity” value does the source give for `Cc1cccc(NC(=O)N2CCC3(CC2)Oc2ccccc2C(=O)N3Cc2ccccc2F)c1C` here?
Answer: inactive: -7.07%

Question: Which “activity change, negative = cytotoxicity” value does the source give for `O=C(NCCn1ccc2ccccc21)c1ccc(Cl)cc1` here?
Answer: inactive: 26.6%

Question: Which “activity change, negative = cytotoxicity” value does the source give for `COc1ccccc1NC(=O)CSc1nc(-c2ccc(C(C)(C)C)cc2)c(C#N)c(=O)[nH]1` here?
Answer: inactive: -7.19%

Question: With `CCOc1ccccc1-n1nnc(-c2nsc(NC(=O)c3ccc(C)cc3)n2)c1C` as the compound, how does the “activity change, negative = cytotoxicity” value read?
Answer: inactive: -21.5%

Question: For `CCc1ccccc1OCC(=O)Nc1ccc(S(=O)(=O)Nc2nc(C)cc(C)n2)cc1`, which “activity change, negative = cytotoxicity” value is on record?
Answer: inactive: 1.59%

Question: Which “activity change, negative = cytotoxicity” value does the source give for `CCc1cccc(-n2c(=O)c3cccnc3n2CC(=O)Nc2ccc(F)c(C)c2)c1` here?
Answer: inactive: -7.1%

Question: With `CCc1ccc2occ(CC(=O)Nc3ccccc3C(F)(F)F)c2c1` as the compound, how does the “activity change, negative = cytotoxicity” value read?
Answer: inactive: -2.7%

Question: For `CC(C)c1ccc(Nc2cc(C(=O)NC3CCCCC3)c3ccccc3n2)cc1`, which “activity change, negative = cytotoxicity” value is on record?
Answer: inactive: 13.7%

Question: For `Cn1c(C(=O)Nc2cccc(C(F)(F)F)c2)cc2c(=O)n3ccccc3nc21`, which “activity change, negative = cytotoxicity” value is on record?
Answer: inactive: 5.26%

Question: For `CC1=C(c2ccc(C)c(C)c2)S(=O)(=O)N=C1N1CCC(C(=O)N2CCC(C)CC2)CC1`, which “activity change, negative = cytotoxicity” value is on record?
Answer: inactive: -3.68%

Question: Which “activity change, negative = cytotoxicity” value does the source give for `CCOc1cc(/C=C(\C#N)C(=O)NCC2CCCO2)ccc1O` (stereo not drawn) here?
Answer: inactive: 15.1%

Question: For `CCOc1ccc(NC(=O)C2CCC(CNS(=O)(=O)c3ccc(Br)s3)CC2)cc1` (stereo not drawn), which “activity change, negative = cytotoxicity” value is on record?
Answer: inactive: 0.862%

Question: For `COc1ccc(OC)c(CNC(=O)C(C)n2c(C)c3cnn(-c4ccccc4)c(=O)c3c2C)c1` (stereo not drawn), which “activity change, negative = cytotoxicity” value is on record?
Answer: inactive: 8.62%

Question: For `CNc1ncnc2c1cnn2-c1ccc(C)c(C)c1`, which “activity change, negative = cytotoxicity” value is on record?
Answer: inactive: 3.52%

Question: With `Cc1ccccc1CNC(=O)CCCn1c(=O)c2cccn2c2cccnc21` as the compound, how does the “activity change, negative = cytotoxicity” value read?
Answer: inactive: 11.8%

Question: With `Oc1ccccc1-c1nc(/C=C/c2ccccc2Cl)nn1-c1ccccc1` as the compound, how does the “activity change, negative = cytotoxicity” value read?
Answer: inactive: 28.2%

Question: With `Cc1ccc(N2CC(NC(=O)c3cccs3)CC2=O)cc1C` (stereo not drawn) as the compound, how does the “activity change, negative = cytotoxicity” value read?
Answer: inactive: -2.61%

Question: Which “activity change, negative = cytotoxicity” value does the source give for `Cc1cccc(NC(=O)c2ccc(-n3cnc4cccnc43)cc2)c1C` here?
Answer: inactive: -2.37%

Question: For `COC(=O)c1cc2sc(C)cc2n1Cc1cccc(OC)c1`, which “activity change, negative = cytotoxicity” value is on record?
Answer: inactive: -4.84%

Question: With `COc1ccc(C2Nc3ccccc3-c3cc(C)nn32)cc1OC` (stereo not drawn) as the compound, how does the “activity change, negative = cytotoxicity” value read?
Answer: inactive: 0.136%

Question: For `O=c1cc(-c2ccccc2)nc(SCc2nc(-c3ccccc3Cl)no2)[nH]1`, which “activity change, negative = cytotoxicity” value is on record?
Answer: inactive: 14.1%

Question: Which “activity change, negative = cytotoxicity” value does the source give for `CCOc1cc(C(=O)Nc2cc3c(cc2N2CCOCC2)n(C)c(=O)n3C)cc(OCC)c1OCC` here?
Answer: inactive: 2.76%
